# Data published in article PMC4336329 (PLoS ONE, 2015).
# Hit rate of the full screen: of about 310,000 compounds, about 2,200 (0.71%) showed an effect of 50% or more. The effect is printed as a negative number. This is one part of the list.
# Molecular target: human ether-à-go-go-related gene (hERG) potassium channel (human, UniProt Q12809)
# Experiment: primary screen, population patch clamp on CHO cells stably expressing hERG
# Sequence of human ether-à-go-go-related gene (hERG) potassium channel (Q12809 whole entry, looked up): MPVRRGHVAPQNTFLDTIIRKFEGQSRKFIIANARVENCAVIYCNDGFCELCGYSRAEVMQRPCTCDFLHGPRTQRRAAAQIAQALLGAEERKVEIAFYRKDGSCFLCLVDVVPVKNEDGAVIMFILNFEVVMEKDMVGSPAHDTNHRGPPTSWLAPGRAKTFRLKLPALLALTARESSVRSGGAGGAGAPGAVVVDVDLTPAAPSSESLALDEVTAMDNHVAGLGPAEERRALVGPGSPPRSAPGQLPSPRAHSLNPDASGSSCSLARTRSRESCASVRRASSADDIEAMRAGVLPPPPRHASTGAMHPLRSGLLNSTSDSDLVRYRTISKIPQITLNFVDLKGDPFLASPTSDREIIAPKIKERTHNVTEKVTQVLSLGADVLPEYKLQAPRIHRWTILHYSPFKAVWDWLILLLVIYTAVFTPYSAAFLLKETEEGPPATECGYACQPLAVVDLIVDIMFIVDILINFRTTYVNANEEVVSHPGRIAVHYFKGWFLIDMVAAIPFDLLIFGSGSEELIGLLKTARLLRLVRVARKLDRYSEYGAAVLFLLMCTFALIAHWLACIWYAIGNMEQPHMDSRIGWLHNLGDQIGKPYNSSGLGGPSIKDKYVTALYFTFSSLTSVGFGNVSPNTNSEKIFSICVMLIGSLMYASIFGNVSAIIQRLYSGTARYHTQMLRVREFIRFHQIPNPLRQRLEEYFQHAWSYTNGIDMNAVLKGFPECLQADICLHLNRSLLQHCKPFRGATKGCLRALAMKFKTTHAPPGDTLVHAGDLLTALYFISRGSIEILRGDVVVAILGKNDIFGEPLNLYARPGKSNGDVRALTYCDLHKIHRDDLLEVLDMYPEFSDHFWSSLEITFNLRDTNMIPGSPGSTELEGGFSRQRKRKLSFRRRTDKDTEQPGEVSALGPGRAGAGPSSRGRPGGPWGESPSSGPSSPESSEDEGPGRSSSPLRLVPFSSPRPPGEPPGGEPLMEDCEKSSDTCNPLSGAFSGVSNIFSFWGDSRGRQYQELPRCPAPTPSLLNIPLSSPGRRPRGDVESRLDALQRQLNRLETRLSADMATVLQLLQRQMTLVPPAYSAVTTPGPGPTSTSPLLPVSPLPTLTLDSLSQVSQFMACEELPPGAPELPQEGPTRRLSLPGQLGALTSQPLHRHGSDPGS
row,Structure (SMILES),"hERG current change (%, negative = inhibition) at 1uM"
1,CC(C)C(OC(=O)c1cccc(S(=O)(=O)NCC(F)(F)F)c1)C(=O)NC(N)=O (stereo not drawn),9.33%
2,S=c1[nH]nc(-c2ccccc2)n1/N=C/c1cccc(Br)c1,18.7%
3,CNC(=O)COC(=O)c1cc(NC(=O)c2ccco2)c(OC)c(OC)c1,7.36%
4,Cc1ccccc1NC(=S)N(CCN(C)C)C(C)c1ccco1 (stereo not drawn),4.64%
5,Cc1ccccc1S(=O)(=O)N1CC(C(=O)O)=CC[C@H]1c1ccc(Cl)cc1,17.5%
6,Nc1ccc(S(=O)(=O)Nc2nc3ccccc3o2)cc1,16.3%
7,Cc1nonc1N1CCN(Cc2cn[nH]c2-c2ccc(F)cc2F)CC1,8.81%
8,O=C(COC(=O)CN1C(=O)C2CCCCC2C1=O)NNC(=O)c1ccc(Cl)cc1 (stereo not drawn),15.3%
9,CC(C)N(CC#CCC(O)(c1ccccc1)C1CCCC1)CCO (stereo not drawn),-0.869%
10,Cc1cccc(NC(=O)NCc2ccccn2)c1,7.83%
11,CC1=CCC(C(=O)O)(C(=O)N/N=C/c2cccs2)C(c2ccc(Cl)cc2)C1 (stereo not drawn),-7.18%
12,O=C(c1ccc([N+](=O)[O-])o1)N1CCc2ccccc2C1,4.04%
13,COc1ccc(N=NC2=C(O)CC(C)(C)CC2=O)cc1,3.63%
14,COc1ccc(NC(=O)c2ccc(NC(=O)c3ccncc3)cc2)cc1,19.3%
15,COc1ccc(OCC(=O)OCC(=O)NC2CC2)cc1,17.3%
16,CN1C(=S)N2CCCN2C1c1ccccc1 (stereo not drawn),4.36%
17,CSc1nnc2c(n1)[nH]c1c(C)cccc12,6.15%
18,COCCN(Cc1cc2cccc(C)c2n2nnnc12)C(=O)C(F)(F)F,2.16%
19,Cc1noc(C)c1C(=O)NC(C)C1CCCO1 (stereo not drawn),8.83%
20,CN(C)C(=O)c1cn(-c2ccccc2)nc1-c1cc2ccccc2o1,4.33%
21,Cc1cccc2sc(NC(=O)[C@@H]3CCCN3C(=O)c3cccs3)nc12,12.1%
22,CC(C)Cn1c(N)c(C(=O)COC(=O)CCc2nc3ccccc3s2)c(=O)n(C)c1=O,-9.57%

row,Structure (SMILES),"hERG current change (%, negative = inhibition) at 1uM"
1,COc1cccc(-c2nn(-c3ccccc3)cc2CN(C)Cc2c(C)nc3ccccn23)c1,2.41%
2,CCOc1ccc(N2CC(C(=O)Nc3cc(Cl)ccc3-n3cncn3)CC2=O)cc1 (stereo not drawn),-25.8%
3,O=C(COC(=O)CNC(=O)c1ccc(Cl)cc1Cl)Nc1cccc(S(=O)(=O)N2CCCC2)c1,9.95%
4,CC1CCCCC1NC(=O)c1nn(C)c(=O)c2ccccc12 (stereo not drawn),2.67%
5,O=C(CSc1nnc(-c2ccccc2)o1)NC1CCCC1,-3.97%
6,COc1ccccc1CCNC1CCCC(C)C1 (stereo not drawn),11.5%
7,COc1ccccc1OCC(O)CN1CCN(CC(=O)Nc2c(C)cccc2C)CC1 (stereo not drawn),-1.27%
8,Cc1ccc(NC(=O)c2cccnc2C(=O)Nc2ccc(C)cc2)cc1,16.6%
9,CC(C)C(=O)Nc1cccc(C(=O)Nc2cc([N+](=O)[O-])ccc2F)c1,8.26%
10,CCOc1ccc(-n2c(-c3ccc(Cl)cc3)c[n+]3c2SCC3)cc1.[Br-],-60.8%
11,COc1ccc(C(=O)Nc2ccc(N3CCCC3)cc2)cc1,-2.01%
12,Cc1nn(CC(=O)N2CCN(c3ccccn3)CC2)c(=O)c2cc3sccc3n12,17.6%
13,O=C(COC(=O)c1cccnc1Cl)Nc1ccccc1OC(F)F,9.23%
14,Cc1ccccc1NC(=O)N1CCC(NC(=O)C2CCCCC2)CC1,4.23%
15,O=C1CSC(c2ccccc2)N1CC(O)c1ccc([N+](=O)[O-])cc1 (stereo not drawn),5.79%
16,COc1cccc(C2CC(c3ccccc3)n3ncnc3N2)c1 (stereo not drawn),1.25%
17,C#CCOCCOCCOCCNc1nc(N2CCN(C(=O)[C@H](CCCC[NH3+])n3cc(CCCC)nn3)CC2)nc(N2CCN(C(=O)[C@H](Cc3ccc(O)cc3)n3cc(CCO)nn3)CC2)n1.[Cl-],10.8%
18,CC(C)c1nnc(NC(=O)COc2ccc3ccccc3c2)s1,-6.26%
19,CCN(Cc1ccncc1)C(=O)c1cc(COc2ccc(F)cc2Cl)on1,5.72%
20,Fc1ccccc1N1CCN(c2nc(-c3cccs3)nc3ccccc23)CC1,2.81%
21,Cc1ccc(N=c2oc3cc(O)ccc3cc2C(N)=O)cc1,8.24%
22,Nc1c(C(=O)c2cccs2)sc2nsc(SCCN3CCCCC3)c12,11.8%

row,Structure (SMILES),"hERG current change (%, negative = inhibition) at 1uM"
1,COc1ccc(C2(O)CC3CCC(C2)N3c2nc(C)cc(C)c2C#N)cc1 (stereo not drawn),0.0463%
2,O=C(NCCO)C(=O)c1c(-c2ccccc2)cc2ccccn12,9.64%
3,O=C(CN1C(=O)C2(OCCCO2)c2ccccc21)NCc1ccccc1,-7.26%
4,CNC(=O)c1[nH]cnc1C(=O)Nc1ccc(F)cc1,8.94%
5,Cc1nn(-c2ccccc2)c(C)c1NC(=O)Cc1cccs1,6.36%
6,CCCOc1ccc(C(=O)Nc2cc(S(=O)(=O)N3CCOCC3)ccc2N2CCOCC2)cc1,-4.81%
7,CCC(=NCCCN1CCOCC1)c1c(O)n(-c2ccccc2C)c(=O)[nH]c1=O,10.3%
8,CCCS(=O)(=O)c1c(S(=O)(=O)CCC)c2ccc(C(N)=O)cn2c1C(=O)c1ccccc1,12.5%
9,Cc1cc(C)cc(NC(=O)CSc2nc3nc(C)cc(C)c3c(=O)[nH]2)c1,11.8%
10,CCCCc1cc(=O)oc2cc(C)cc(OCC(=O)NCc3ccncc3)c12,-73.8%
11,CCOc1cc([C@H]2[C@@H]3CCCC[C@]3(O)CCN2CC(=O)NCc2ccco2)ccc1O,8.54%
12,Cc1onc(-c2ccccc2)c1C1=N/C(=C\c2ccccc2F)C(=O)O1,-0.736%
13,O=C(Nc1ccon1)c1ccc(Cl)c(S(=O)(=O)N2CCCCC2)c1,8.74%
14,Cn1c(=O)[nH]c(=O)c2c1nc(SCC(O)CO)n2Cc1ccccc1Cl (stereo not drawn),5%
15,O=C(COc1ncnc2cc(Cl)ccc12)c1ccc2c(c1)OCCO2,11.8%
16,O=C(Nc1ccccc1)c1cccnc1N1CCOCC1,15.7%
17,O=C(COC(=O)C1CCN(/C=C/C(=O)C(F)(F)F)CC1)Nc1ccccc1,15.4%
18,S=C(NCc1ccco1)N1CCN(C(c2ccccc2)c2ccccc2)CC1,3.75%
19,CCCCN(Cc1ccccc1)C(=O)CCN1C(=O)C2C3C=CC(C3)C2C1=O (stereo not drawn),6.56%
20,CCC(C)(C)n1nnnc1C(c1ccc(F)cc1)N1CCC(C(N)=O)CC1.Cl (stereo not drawn),-14.4%
21,CCS(=O)(=O)c1ncc(Cl)c(C(=O)Nc2ccc(C)cc2)n1,20%
22,Cc1ccc(-c2cc(C(=O)N/N=C/c3ccc(F)cc3)n[nH]2)o1,6.91%

row,Structure (SMILES),"hERG current change (%, negative = inhibition) at 1uM"
1,Cn1c(=O)c2c(O)c(C=Nc3ccc(F)cc3)c(=O)n(C)c2n(C)c1=O,12.1%
2,O=C1OC(OC2CCCCC2)(c2ccccc2)c2ccccc21 (stereo not drawn),-5.89%
3,Cc1ccc(S(=O)(=O)NCC2CCC(C(=O)O)CC2)cc1 (stereo not drawn),3.22%
4,Cc1ccc(C(=O)c2ccc(N3CCOCC3)c(F)c2)cc1,3.78%
5,O=C(Nc1ccncc1)c1ccc(NS(=O)(=O)c2ccc3[nH]c(=O)[nH]c3c2)cc1,29.2%
6,CC1(C)N=C(N)N=C(N)N1c1ccc(F)cc1F.Cl,11.1%
7,Cc1ccc(O)c(NC(=O)CCCC(=O)O)c1,6.78%
8,NS(=O)(=O)c1ccc(N/N=C/c2ccc3c(c2)OCO3)c([N+](=O)[O-])c1,9.69%
9,COc1cc(C(=O)NC(=S)Nc2ccc(Cc3ccncc3)cc2)cc(OC)c1OC,-45.1%
10,COc1ccc(C(=O)Oc2ccc3oc(=O)sc3c2)cc1,-3.06%
11,C[C@H](NC(=O)c1nc[nH]c1C(=O)N[C@@H](C)C(=O)OC(C)(C)C)C(=O)OCc1ccccc1,-3.23%
12,Cc1nnc(NC(=O)Cn2cnc3c2c(=O)n(C)c(=O)n3C)s1,9.94%
13,C=CCN(C(=O)CCC(=O)Nc1cc(C)on1)C(C(=O)NC(C)(C)C)c1ccc(OC)cc1 (stereo not drawn),0.158%
14,O=C(CN1CCCCCC1)Nc1c(Cl)cc(Cl)cc1Cl,12.1%
15,Cc1ccc(S(=O)(=O)NCC(=O)Nc2ccc3c(c2)OCCO3)cc1,17.5%
16,COc1ccc2[nH]c(=O)c3c(c2c1)OC(C)(C)C=C3,11.1%
17,CCC(C)[C@H]1COCCS(=O)(=O)N1Cc1ccccc1F (stereo partly drawn),-1.13%
18,Cl.NC(=S)NC(c1ccccc1)c1ccncc1 (stereo not drawn),6.39%
19,COc1cccc(OC)c1-c1nn2c(-c3cc(-c4ccccc4)n[nH]3)nnc2s1,10.4%
20,O=C(Cc1ccccc1)NNC1CC(=O)N(c2ccccc2)C1=O (stereo not drawn),11.4%
21,COc1ccccc1C1=NOC(C)(c2nnc(Cc3ccccc3)o2)C1 (stereo not drawn),5.91%
